In PMC4336329 (PLoS ONE, 2015):
Among all 310,000 compounds or so, about 14,000 (4.5%) showed an effect of 50% or more. Effects have a minus sign here. The list shows a part of the results.
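Further: peak tail current of the secondary pulse compared with the same well before compound.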

The compounds below were run against human ether-à-go-go-related gene (hERG) potassium channel (human, UniProt Q12809) (assay: primary screen, population patch clamp on CHO cells stably expressing hERG).
human ether-à-go-go-related gene (hERG) potassium channel, sequence (Q12809 whole entry, looked up): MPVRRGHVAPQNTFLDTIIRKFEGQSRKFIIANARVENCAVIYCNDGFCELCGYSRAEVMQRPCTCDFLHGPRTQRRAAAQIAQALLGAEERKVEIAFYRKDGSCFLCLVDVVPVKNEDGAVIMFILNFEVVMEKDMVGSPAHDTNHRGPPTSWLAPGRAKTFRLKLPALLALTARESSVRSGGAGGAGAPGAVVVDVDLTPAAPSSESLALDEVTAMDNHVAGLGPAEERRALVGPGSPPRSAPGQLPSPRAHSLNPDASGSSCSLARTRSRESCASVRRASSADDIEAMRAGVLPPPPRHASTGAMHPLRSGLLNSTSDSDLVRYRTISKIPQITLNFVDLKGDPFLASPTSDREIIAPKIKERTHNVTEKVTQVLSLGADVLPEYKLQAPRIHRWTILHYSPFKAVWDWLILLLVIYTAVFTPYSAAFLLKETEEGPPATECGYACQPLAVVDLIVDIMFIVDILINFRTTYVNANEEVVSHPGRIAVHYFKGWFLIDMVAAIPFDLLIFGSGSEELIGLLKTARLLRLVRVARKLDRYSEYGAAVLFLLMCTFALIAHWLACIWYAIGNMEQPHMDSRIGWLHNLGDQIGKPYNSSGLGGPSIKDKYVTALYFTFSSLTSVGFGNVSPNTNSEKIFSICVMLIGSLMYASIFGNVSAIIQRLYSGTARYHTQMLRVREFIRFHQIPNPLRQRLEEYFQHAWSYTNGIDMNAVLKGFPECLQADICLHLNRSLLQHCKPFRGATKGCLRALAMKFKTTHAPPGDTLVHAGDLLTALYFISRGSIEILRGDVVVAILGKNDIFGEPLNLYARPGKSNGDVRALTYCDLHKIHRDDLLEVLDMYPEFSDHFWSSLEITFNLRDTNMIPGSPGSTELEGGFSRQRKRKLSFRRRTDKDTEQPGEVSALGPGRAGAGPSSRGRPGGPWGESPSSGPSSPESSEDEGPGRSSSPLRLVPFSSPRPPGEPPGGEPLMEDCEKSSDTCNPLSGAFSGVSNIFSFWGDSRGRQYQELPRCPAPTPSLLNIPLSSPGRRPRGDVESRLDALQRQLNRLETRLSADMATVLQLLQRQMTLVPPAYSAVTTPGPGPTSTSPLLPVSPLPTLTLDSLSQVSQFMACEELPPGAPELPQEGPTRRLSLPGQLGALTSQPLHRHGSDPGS
For `CCCNC(=O)C1(S(=O)(=O)c2ccccc2)CC=CC1`, the “hERG current change (%, negative = inhibition) at 10uM” value was -14.5%.
In the case of `Cc1ccc(-c2nnc(Nc3ccc(CC(N)=O)cc3)c3ccccc23)cc1S(=O)(=O)NCC1CCCO1` (stereo not drawn), the “hERG current change (%, negative = inhibition) at 10uM” value is reported as 9.83%.
With `Fc1ccccc1/C=N/Nc1nc(N2CCCCC2)nc(N2CCCCC2)n1` the “hERG current change (%, negative = inhibition) at 10uM” value was 16.7%.
With `CC(C)(C)c1ccc(C(=O)N/C(=C\c2cccc([N+](=O)[O-])c2)C(=O)Nc2cccc(C(=O)O)c2)cc1` the “hERG current change (%, negative = inhibition) at 10uM” value was 12.7%.
For `Cc1ccc2c(c1)N(C(C)C(=O)NCc1cccs1)C(=O)CO2` (stereo not drawn), the “hERG current change (%, negative = inhibition) at 10uM” value was 2.67%.
With `CCc1nc(N)nc(N)c1-c1ccc(Cl)cc1` the “hERG current change (%, negative = inhibition) at 10uM” value was -20.7%.
For `O=S(=O)(NC1CCN(Cc2ccccc2)CC1)c1cccc2cccnc12`, the “hERG current change (%, negative = inhibition) at 10uM” value was -22%.
`COc1cccc(N(C(=O)CNC(=O)c2ccco2)C(C(=O)NC2CCCC2)c2cccnc2)c1` (stereo not drawn) was tested, and the “hERG current change (%, negative = inhibition) at 10uM” value was -5.54%.
For `Cc1cccnc1CC(C)NC(=O)c1cc(COc2cncc(Cl)c2)on1` (stereo not drawn), the “hERG current change (%, negative = inhibition) at 10uM” value was -3.75%.
For `O=C(Nc1cccc(NC(=O)c2cccs2)c1)c1ccc(Br)cc1`, the “hERG current change (%, negative = inhibition) at 10uM” value was 13.5%.
In the case of `COC(=O)CC1=C(C(=O)OC)C2(C(=O)Nc3c(C)cccc32)C(C#N)=C(N)O1` (stereo not drawn), the “hERG current change (%, negative = inhibition) at 10uM” value is reported as -3.24%.
With `COc1ccccc1/C=C(\NC(=O)c1ccc(OC)c(OC)c1)C(=O)Nc1cccc([N+](=O)[O-])c1` the “hERG current change (%, negative = inhibition) at 10uM” value was -3.5%.
`CCCCNC(=O)Cn1cnc2c(cnn2-c2ccc(C)cc2)c1=O` was tested, and the “hERG current change (%, negative = inhibition) at 10uM” value was 1.75%.
In the case of `COc1cccc(NC(=O)CN(C)C(C)C(=O)Nc2ccc(S(=O)(=O)N3CCCC3)cc2)c1` (stereo not drawn), the “hERG current change (%, negative = inhibition) at 10uM” value is reported as -0.933%.
With `CCCc1nc(SCC(=O)Nc2ccc(S(=O)(=O)N(C)C)cc2)c2ccccc2n1` the “hERG current change (%, negative = inhibition) at 10uM” value was 1.09%.
With `O=C(Nc1ccc(-c2nc3cc(Cl)ccc3o2)cc1)C1CCCO1` (stereo not drawn) the “hERG current change (%, negative = inhibition) at 10uM” value was 8.99%.
For `CC(Nc1ccc2ccccc2c1)C(=O)N/N=C/c1ccncc1` (stereo not drawn), the “hERG current change (%, negative = inhibition) at 10uM” value was -24.5%.
In the case of `Cc1ccc(NC(=O)CN2C(=O)COc3ccc(C)cc32)nc1`, the “hERG current change (%, negative = inhibition) at 10uM” value is reported as 6.7%.
For `Cc1cccc2c(C(=O)O)cc(-c3cccnc3)nc12`, the “hERG current change (%, negative = inhibition) at 10uM” value was 33.3%.
For `CC(CCCC(C)(C)O)NC(=O)c1ccc(OC2CCN(C(=O)C3CC3)CC2)cc1` (stereo not drawn), the “hERG current change (%, negative = inhibition) at 10uM” value was 8.3%.
With `O=[N+]([O-])c1cc([N+](=O)[O-])c2cccnc2c1Oc1ccccc1O` the “hERG current change (%, negative = inhibition) at 10uM” value was -0.878%.
For `Cc1nc(N2CCN(Cc3ccccc3)CC2)nc2c1C(=O)CC(c1ccco1)C2` (stereo not drawn), the “hERG current change (%, negative = inhibition) at 10uM” value was -6.63%.
With `CCN(CC)CCN1C(=O)C(=O)/C(=C(/O)c2c(C)[nH]c(C(=O)OC)c2C)C1c1ccco1` (stereo not drawn) the “hERG current change (%, negative = inhibition) at 10uM” value was 2.55%.
`Cc1ccc(CCn2c3c(c4ccccc42)CN(C)CC3)cn1` was tested, and the “hERG current change (%, negative = inhibition) at 10uM” value was -3.74%.
With `CC(C)c1nnc(NC(=O)C2CCN(c3cnccn3)CC2)s1` the “hERG current change (%, negative = inhibition) at 10uM” value was -1.06%.
`COc1ccc2cc(C(=O)/C=C/c3cc(OC)c(OC)c(OC)c3)ccc2c1` was tested, and the “hERG current change (%, negative = inhibition) at 10uM” value was 19.7%.
For `COc1cccc(NC(=O)N2CCc3ccccc3C2)c1`, the “hERG current change (%, negative = inhibition) at 10uM” value was 14.4%.
With `CN(C)CCNC(=O)c1ccccc1-c1cc2ccccc2c(=O)o1` the “hERG current change (%, negative = inhibition) at 10uM” value was -54.6%.
`O=C(Nc1nc(-c2ccc(-c3ccccc3)cc2)cs1)c1cc([N+](=O)[O-])ccc1N1CCOCC1` was tested, and the “hERG current change (%, negative = inhibition) at 10uM” value was 7.83%.
`Cc1nc(NC(=O)c2ccc(Br)s2)sc1C(=O)N(C)C` was tested, and the “hERG current change (%, negative = inhibition) at 10uM” value was 0.336%.
For `CN(CC(=O)Nc1cccc(F)c1)C(=O)c1ccc2c(c1)S(=O)(=O)N=C1CCCCCN12`, the “hERG current change (%, negative = inhibition) at 10uM” value was 9.21%.
With `Cc1onc(C(=O)NC(C)c2ccccc2)c1[N+](=O)[O-]` (stereo not drawn) the “hERG current change (%, negative = inhibition) at 10uM” value was -10.8%.
`O=C(/C=C/Nc1nccs1)C(F)(F)Cl` was tested, and the “hERG current change (%, negative = inhibition) at 10uM” value was 10.5%.
`CCCN1CCC(=O)N(CCSc2ccccc2)CC1` was tested, and the “hERG current change (%, negative = inhibition) at 10uM” value was -15.1%.
`O=C(Cn1c(-c2ccccc2)c[n+]2ccsc12)c1ccccc1.[Br-]` was tested, and the “hERG current change (%, negative = inhibition) at 10uM” value was -9.99%.
For `O=C(CCN1C(=O)c2cccc3cccc(c23)C1=O)Nc1ccon1`, the “hERG current change (%, negative = inhibition) at 10uM” value was 14%.
In the case of `COCCn1nnnc1C(C(C)C)N1CCSCC1.Cl` (stereo not drawn), the “hERG current change (%, negative = inhibition) at 10uM” value is reported as 90.5%.
With `Nc1n[nH]c(-c2cccc([N+](=O)[O-])c2)n1` the “hERG current change (%, negative = inhibition) at 10uM” value was 6.47%.
For `Cn1c(Cn2c(=O)sc3ccccc32)nnc1SCC(=O)NC1CCCCC1`, the “hERG current change (%, negative = inhibition) at 10uM” value was 12.2%.
In the case of `COc1ccc(C2=CC(c3ccc(OC)c(OC)c3)n3nnnc3N2)c(OC)c1` (stereo not drawn), the “hERG current change (%, negative = inhibition) at 10uM” value is reported as -5.66%.
In the case of `CCOc1ccc(-c2nnc(NC(=O)c3ccc(OCC(C)C)c(OC)c3)o2)cc1`, the “hERG current change (%, negative = inhibition) at 10uM” value is reported as 0.141%.
With `O=S(=O)(Nc1ccc(S(=O)(=O)Nc2ncccn2)cc1)c1ccccc1` the “hERG current change (%, negative = inhibition) at 10uM” value was 15.5%.
